Reference: ChEMBL document CHEMBL1201862, “PubChem BioAssay data set” (2004)
Structures can show the parent of a compound that is named as a salt.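 Grown in 96-well plates, cells were treated for 48 hours with each compound at five concentrations. Insufficient inhibition: endpoint recorded as highest concentration tested. The concentration for 50% growth inhibition is given as GI50.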 Calls of active or inactive are those of the source. Cut-off read from the data, not from the text of the source: active = GI50 up to about 1.1 µM and inactive = higher. Square brackets hold non-standard residues; d marks the D form. Peptide text beside a SMILES is read from it. * marks the point of attachment. ξ: configuration not given here. Phe(4-NO2) = N[CH](Cc1ccc([N+](=O)[O-])cc1)C(=O)O; ξ2Thi = NC(Cc1cccs1)C(=O)O; ξR = N=C(N)NCCCC(N)C(=O)O; Boc = CC(C)(C)OC(=O)*; ξI = CCC(C)C(N)C(=O)O; ξL = CC(C)CC(N)C(=O)O; ξK = NCCCCC(N)C(=O)O; ξT = CC(O)C(N)C(=O)O; ξA = CC(N)C(=O)O

Each compound was assayed on NCI-H322M (assay: DTP human tumour cell line panel, 48 h).
CC(=O)O[C@H]1CC[C@@]2(C)[C@@H](CC[C@@H]3[C@@H]2CC(=O)[C@@]2(C)[C@H]3C[C@@H]3CC(C)=CC(=O)[C@@H]32)C1 was tested, and the GI50 was inactive: 50.1 µM.
For C[C@]12CC[C@@H]3c4ccc(OC(=O)c5ccccc5)cc4CC[C@H]3[C@@H]1CC[C@@H]2Oc1c2ccccc2nc2ccccc12, the GI50 was inactive: 10.5 µM.
For Cc1noc(NS(=O)(=O)c2ccc(NC(=O)c3ccc4[nH]c5ccccc5c(=O)c4c3)cc2)c1C, the GI50 was inactive: 27.3 µM.
With COc1cccc(NC(=O)CC(=O)N2N=C(N(CCC#N)c3ccc(Cl)cc3)CC2c2ccccc2)c1 (stereo unspecified) the GI50 was inactive: > 100 µM.
C=Cc1ccc(C)[n+](C[Si](C)(C)O[Si](C)(C)C[n+]2cc(C=C)ccc2C)c1 was tested, and the GI50 was inactive: > 100 µM.
With CCC1(C)N=c2c(ncn2N=C(C)C)=C(C(N)=O)N1 (stereo unspecified) the GI50 was inactive: > 100 µM.
For COc1ccc(N2C=Nn3c(nc4sc5c(c4c3=O)CCCC5)C2)cc1, the GI50 was inactive: > 100 µM.
With Cc1c([N+](=O)[O-])oc2ccc3ccccc3c12 the GI50 was inactive: > 100 µM.
For c1ccc(C(NC2CCCCC2NCCNC2CCCCC2NC(c2ccccc2)(c2ccccc2)c2ccccc2)(c2ccccc2)c2ccccc2)cc1 (stereo unspecified), the GI50 was inactive: > 100 µM.
In the case of CC1=CC2C(O1)C1C(=O)C=CC(=O)C1=CC2[N+](=O)[O-] (stereo unspecified), the GI50 is reported as inactive: > 47.6 µM.
With Cc1cc2c(c(C(=O)O)c1C)-c1cccc(Cl)c1C2=O the GI50 was inactive: > 100 µM.
COc1cc(CCNC2=CC(=O)c3ncccc3C2=O)ccc1O was tested, and the GI50 was inactive: 3.41 µM.
With COC(=O)C12C3C4(C(=O)OC)C1C1(C(=O)OC)C2C3(C(=O)OC)C41C(=O)N(C(C)C)C(C)C (stereo unspecified) the GI50 was inactive: > 100 µM.
In the case of CC(=O)NC1C(OC(C)C(=O)NC(C(=O)NC(CCC(=O)NCCCNC2c3ccccc3Nc3cccc([N+](=O)[O-])c32)C(N)=O)C(C)C)C(O)C(CO)OC1(C)OCc1ccccc1 (stereo unspecified), the GI50 is reported as active: 1.11 µM.
In the case of COc1cc(NS(C)(=O)=O)ccc1N1Cc2c[nH]c3ccc4nc(C)cc1c4c23, the GI50 is reported as inactive: 56.1 µM.
For Cc1c2cccc-2c(OCCO)cc2c1[nH]c1ccccc12, the GI50 was inactive: 9.46 µM.
Cc1nc2ccccc2n1Cc1nnc2n1N=C(c1ccccc1)CS2 was tested, and the GI50 was inactive: 31.9 µM.
For C/C(=N\NC(N)=S)c1cccs1.OB(O)c1ccccc1, the GI50 was inactive: > 100 µM.
For CCCCCCCCCCCCOCCCCCCCCC/C=C/c1ccc2c(c1)OCCOCCOCCOCCO2, the GI50 was inactive: 80.9 µM.
With COC(=O)c1ccccc1/N=C(/NC1CCCCCC1)NS(=O)(=O)c1ccc(C)cc1 the GI50 was inactive: > 100 µM.
In the case of OC(c1ccc(C(F)(F)F)cc1)C(F)(F)c1nc2ccccc2o1 (stereo unspecified), the GI50 is reported as inactive: > 100 µM.
With O=C(c1cc(Cl)cc(Cl)c1)N(C(=S)OC12CC3CC(CC(C3)C1)C2)c1ccccc1 the GI50 was inactive: 45.7 µM.
CCCCCCCCCCCCCCCCS(=O)(=O)c1ccc(NN)cc1 was tested, and the GI50 was inactive: > 10 µM.
With CN(C)c1ccc(C(=N/N=C2\C(=O)Nc3ccccc32)c2ccc(N(C)C)cc2)cc1 the GI50 was inactive: 3.82 µM.
For Clc1cccc(/C=c2\nc(-c3ccccc3)n3c2nc2ccccc23)c1, the GI50 was inactive: > 100 µM.
For O=C(Nc1ccccc1C(=O)O)/C(=C/c1ccccc1)NC(=O)c1ccccc1, the GI50 was inactive: > 100 µM.
In the case of Cc1cn(CCC(N)C(=O)O)c(=O)[nH]c1=O (stereo unspecified), the GI50 is reported as inactive: > 100 µM.
In the case of O=C(CCc1nnc(S)[nH]1)Nc1cccc(C(F)(F)F)c1, the GI50 is reported as inactive: > 100 µM.
With CC(=O)Nc1cc([As](=O)(O)O)ccc1O [ACETARSONE] the GI50 was inactive: > 100 µM.
In the case of CC(C)/C=C1\CCC(CN2CCOCC2)C1=O (stereo unspecified), the GI50 is reported as inactive: 25 µM.
For CN(C)C(=O)O/N=C1/C(=C2/C(=O)Nc3ccccc32)Nc2ccccc21, the GI50 was inactive: 10.4 µM.
For O=c1[nH][nH]c(=O)n1Cc1ccccc1, the GI50 was inactive: > 100 µM.
COc1ccc(Cc2n[nH]c(Nc3ccc(Br)cc3)nc2=O)cc1OC was tested, and the GI50 was inactive: > 70.5 µM.
CC(C)(C)c1cc2c(O)c(c1)Cc1cc(C(C#N)(Cc3ccc4ccccc4c3)Cc3ccc4ccccc4c3)cc(c1O)Cc1cc(C(C)(C)C)cc(c1O)Cc1cc(C(C#N)(Cc3ccc4ccccc4c3)Cc3ccc4ccccc4c3)cc(c1O)C2 was tested, and the GI50 was inactive: > 100 µM.
C[C@@H](Br)[C@@H]1CC[C@H]2c3[nH]c4ccccc4c3CCN2C1 was tested, and the GI50 was inactive: 41.5 µM.
For CCCNC(/C=C/[Si](C)(C)C)CO.CCCNCC(O)/C=C/[Si](C)(C)C (stereo unspecified), the GI50 was inactive: > 100 µM.
With Cn1c(=O)c2[nH]c(N=O)nc2n(C)c1=O the GI50 was inactive: > 100 µM.
With Cn1cnnc1SC(F)(F)c1nc2ccccc2o1 the GI50 was inactive: > 100 µM.
With COC(=O)/C=C1\C(CO[Si](C)(C)C(C)(C)C)OC(n2ccc(=O)[nH]c2=O)C1O (stereo unspecified) the GI50 was inactive: 17.3 µM.
For OCCNCNc1nc(NCNCCO)nc(N(CNCCO)CNCCO)n1, the GI50 was inactive: 43.5 µM.
In the case of COC1N(C2CC(O)C(CO)O2)C(=O)NC(=O)C1(F)Br (stereo unspecified), the GI50 is reported as inactive: 17.1 µM.
With CC1(C)CCC2=C(O1)/C(=N\Nc1ccccc1)c1ccccc1C2=O the GI50 was inactive: 31.2 µM.
With BrC1=C(Br)C2(SCCS2)[C@H]2C[C@@H]1c1ccccc12 the GI50 was inactive: 83 µM.
With CC(C)c1ccc(/C=C2\N=C(c3ccc([N+](=O)[O-])cc3)OC2=O)cc1 the GI50 was inactive: > 100 µM.
With CC(=O)c1csc2c1C(=O)c1ccccc1C2=O the GI50 was inactive: 1.69 µM.
For CO/N=C\c1cc(O)c(O)c(/C=N/OC)c1, the GI50 was inactive: 44 µM.
With Cc1c2ncccc2c(C)c2c1[nH]c1ccccc12 the GI50 was inactive: 8.75 µM.
With CC1(C)CC(=O)c2c(nc3ccc4ccccc4c3c2-c2ccc(NC(=O)CCC(=O)Nc3ccc(-c4c5c(nc6ccc7ccccc7c46)CC(C)(C)CC5=O)cc3)cc2)C1 the GI50 was inactive: > 100 µM.
In the case of Cc1ccc2c(c1)-c1c(C#N)c(N)nc(-c3ccccc3)c1CCS2(=O)=O, the GI50 is reported as inactive: 13.6 µM.
In the case of CN1CCN(C(=S)N(C)C(=O)c2cccs2)CC1, the GI50 is reported as inactive: > 100 µM.
With O=C(Cn1ccnc1[N+](=O)[O-])c1ccccc1 the GI50 was inactive: > 100 µM.
In the case of CN(N=O)C(=O)N[C@H]1C(O)O[C@H](CO)[C@@H](O)[C@@H]1O (stereo partly specified), the GI50 is reported as inactive: 604 µM.
For C/C=C(\C)[C@@H](O)C(=O)O[C@@H]1CC(C(C)(C)O)[C@](C)(CCC(=O)OC)[C@H]2[C@H](OC(=O)[C@H](O)[C@H](C)CC)C[C@]3(C)C(=CC[C@H]3[C@H]3CO[C@H](C=C(C)C)C3)[C@]12C (stereo partly specified), the GI50 was inactive: 34.4 µM.
COC1=CC(=O)c2c(O)c3c(c(O)c2C1=O)OC1(Oc2c(cc4cc(C)oc(=O)c4c2O)CC1O)C3O (stereo unspecified) was tested, and the GI50 was inactive: 38.5 µM.
With S=C1NC2=C(COc3ccccc32)C(c2ccc(Cl)cc2)N1 (stereo unspecified) the GI50 was inactive: 16.4 µM.
With CCC(C)C(NC(=O)C(Cc1cccs1)NC(=O)C(CC(C)C)NC(=O)C(CC(C)C)NC(=O)C(CCCCN)NC(=O)C(CCCN=C(N)N)NC(=O)[C@H](Cc1ccc(O)cc1)NC(=O)C(NC(=O)C(C)NC(=O)C(N)CC(C)C)C(C)O)C(=O)NC(CC(C)C)C(N)=O (stereo partly specified) (H-[ξL][ξA][ξT]Y[ξR][ξK][ξL][ξL][ξ2Thi][ξI][ξL]-NH2) the GI50 was inactive: > 50 µM.
For Oc1cc(Br)cc2cc(Br)cnc12, the GI50 was inactive: 17.3 µM.
CCc1nc2cc(/N=N/c3c(O)ccc4ccccc34)ccc2[nH]1 was tested, and the GI50 was inactive: 23.4 µM.
NC1=NN(c2ccccc2)C(=O)C1C(=O)C(=O)NC1C2CC3CC(C2)CC1C3 (stereo unspecified) was tested, and the GI50 was inactive: > 100 µM.
For Cc1nc2c(=O)n(C)c(=O)nc-2n(CCO)c1C, the GI50 was inactive: > 100 µM.
In the case of Cc1ccc(/C=C2\NC(=S)N(CN3CCOCC3)C2=O)cc1, the GI50 is reported as inactive: > 100 µM.
For CC(CN1CC(=O)NC(=O)C1)N1CC(=O)NC(=O)C1 (stereo unspecified) [RAZOXANE], the GI50 was inactive: 434 µM.
With COc1ccc(/C=C2\NC(=S)N(/C=C3\C(=O)Oc4ccccc4C3=O)C2=O)cc1OC the GI50 was inactive: > 100 µM.
CN[C@@H](C)[C@@H](O)c1ccccc1 [PSEUDOEPHEDRINE HYDROCHLORIDE] was tested, and the GI50 was inactive: > 100 µM.
With COc1cc(/C=C/C(=O)CC(=O)/C=C/c2ccc(O)c(OC)c2)ccc1O [CURCUMIN] the GI50 was inactive: 16.7 µM.
In the case of O=c1cnn2c(n1)sc1ccc3ccccc3c12, the GI50 is reported as inactive: > 100 µM.
In the case of CC1=NC(=Cc2cccc(Cl)c2)C(=O)N1n1c(-c2ccccc2)nc2ccccc2c1=O, the GI50 is reported as inactive: 39.2 µM.
CCc1c(O)nc(Nc2nc3ccccc3[nH]2)[nH]c1=O was tested, and the GI50 was inactive: > 100 µM.
With Cc1c(C#N)c(N)n(C2OCC(O)C(O)C2O)c(=S)c1C#N (stereo unspecified) the GI50 was inactive: > 100 µM.
For O=C(NNC(=S)Nc1ccccc1)c1csc(NC(=S)NC2CCCCC2)n1, the GI50 was inactive: > 100 µM.
For CC1CC(N2CCOCC2)=Nc2ccccc2N1Cc1ccccc1 (stereo unspecified), the GI50 was inactive: > 100 µM.
OCC(O)C(O)C(O)c1nn(-c2ccc(Cl)cc2)c2nc3cc(Cl)c(Cl)cc3nc12 (stereo unspecified) was tested, and the GI50 was inactive: > 100 µM.
In the case of N#Cc1nc(Cc2ccccc2)oc1N, the GI50 is reported as inactive: > 100 µM.
With COc1cccc2c(=O)oc(-c3ccccc3C)nc12 the GI50 was inactive: 79.3 µM.
With O=c1[nH]nc(-c2ccccc2)n1/N=C/c1ccco1 the GI50 was inactive: > 100 µM.
COc1cc2c(cc1O)[C@H](Cc1ccc(Oc3cc(C[C@H]4c5cc(OC)c(OC)cc5CCN4C)ccc3OC)cc1)NCC2 was tested, and the GI50 was inactive: 16.4 µM.
With NC1=NCC(CN2CCCCC2)O1 (stereo unspecified) the GI50 was inactive: > 100 µM.
With CCOC(=O)/C=C/c1cccc(F)c1 the GI50 was inactive: > 100 µM.
For Cc1ccc(OC2CC(n3cnc4ncnc(Cl)c43)OC2Oc2ccc(C)cc2)cc1 (stereo unspecified), the GI50 was inactive: 17.9 µM.
For CCOC(=O)Cc1nc(/C(C#N)=C/c2ccco2)[nH]c(=O)c1C#N, the GI50 was inactive: 8.3 µM.
COC(=O)NC(Nc1ccc(Cl)cc1Cl)(C(F)(F)F)C(F)(F)F was tested, and the GI50 was inactive: > 100 µM.
For COC1CC(O[C@H]2CC[C@@]3(C)C(=CCC4(O)C3CCC35C(=O)OC6(C)O[C@@]43CCC65)C2)OC(C)C1O (stereo partly specified), the GI50 was inactive: > 100 µM.
For CNC(=O)CCC(NC(=O)OC(C)(C)C)C(=O)NC(Cc1ccc([N+](=O)[O-])cc1)C(=O)NCC(=O)NC (stereo unspecified) (Boc-Glu(NHMe)-[Phe(4-NO2)]-Gly-NHMe; configuration not given here), the GI50 was inactive: > 100 µM.
In the case of CCOc1ccccc1NC(=O)CC1SC(Nc2ccc([N+](=O)[O-])cc2)=NC1=O (stereo unspecified), the GI50 is reported as inactive: 28.1 µM.
O=c1c(Cl)nsnc1Cl was tested, and the GI50 was inactive: 18.5 µM.
Cc1c(-c2ccccc2)[nH]c2cc(Cl)ccc2c1=O was tested, and the GI50 was inactive: > 100 µM.
